Experimental data reported in PubChem BioAssay AID485281 (National Center for Advancing Translational Sciences (NCATS), 2010).
Hit rate of the full screen: of about 350,000 compounds, about 260 (0.074%) were called active. The inconclusive results got no clear call from the source; some entries with a clear call stand among them for comparison. Calls follow the shape of the dose curve; as a rule, active = well fitted inhibition curve with a large enough effect; inconclusive = small, poorly fitted or top-dose-only effect; inactive = no such curve, though single readings can be large or run the other way. Where the call is inconclusive, the potency comes from a doubtful curve fit.

target: Ferritin light chain (Equus caballus) (UniProt P02791); test: qHTS Assay for Identification of Novel General Anesthetics; conditions: apoferritin/1-aminoanthracene competitive binding, fluorescence; series mostly up to 77.5 µM; also: nearly all actives have a fitted effect of over 20% in size
Chain of UniProt P02791 (P02791 whole entry, looked up): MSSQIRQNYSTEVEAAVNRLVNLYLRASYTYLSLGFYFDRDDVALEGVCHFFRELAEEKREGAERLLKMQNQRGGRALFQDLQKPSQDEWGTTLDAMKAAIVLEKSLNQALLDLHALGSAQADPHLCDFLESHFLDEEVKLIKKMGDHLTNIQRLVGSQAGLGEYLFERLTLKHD
How it was run: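 In PBS, apoferritin at 10 uM is loaded with 1-AMA from a 50% saturated solution. After 10 min of compound exposure at ambient temperature, reduced 535 nm fluorescence indicates probe displacement.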
Potency is read from the fitted curve at half-maximal effect; tags tell the direction and shape of the fitted curve.

Compound	Potency
O=C(Nc1ccc(S(=O)(=O)N2CCCCCC2)cc1)c1cc(=O)c2ccccc2o1	inconclusive: 3.98 µM [inhibitor, full curve, poor fit]
Cc1ccc(C(=O)C[n+]2cc(-c3ccc(C)cc3)n3c2CCCCC3)cc1	inactive
CCCCc1ccc(NC(=S)N2CCCC2)cc1	inconclusive: 22.4 µM [inhibitor, partial curve]
CN(CC(=O)Nc1ccc(Cl)c(C(F)(F)F)c1)C(=O)c1cccnc1Sc1ccccc1	inconclusive: 10 µM [inhibitor, partial curve]
COc1cccc(CNS(=O)(=O)/C=C/c2ccc3c(c2)OCO3)c1	inconclusive: 44.7 µM [inhibitor, single point]
COc1ccc(-c2nnc(SCC(=O)c3cccs3)o2)cc1	inconclusive: 17.8 µM [inhibitor, partial curve]
O=C(c1ccc2c(c1)N(Cc1cccc(Cl)c1)C(=O)c1ccccc1S2)N1CCOCC1	inconclusive: 4.47 µM [inhibitor, full curve]
Cc1ccc2oc(=O)c3cc(C(=O)NCCN4CCc5ccccc5C4)sc3c2c1	inconclusive: 20 µM [inhibitor, partial curve]
CSc1ccccc1C(=O)NC1CCCCCC1	inconclusive: 28.2 µM [inhibitor, single point]
Cc1ccc(NC(=O)CN2C(=O)S/C(=C\c3ccc(-c4cccc(C(=O)O)c4C)o3)C2=O)cc1	inactive
Cc1ccccc1CSCCNS(C)(=O)=O	inconclusive: 35.5 µM [inhibitor, partial curve]
O=C1NC2(CCCCCC2)N=C1c1ccc(F)cc1	inconclusive: 22.4 µM [inhibitor, partial curve]
CN(CCCC1CCCC1)C(=O)CC1C(=O)NCCN1Cc1ccc(F)cc1 (stereo not drawn)	inconclusive: 25.1 µM [inhibitor, partial curve]
FC(F)(F)c1cc(-c2ccccc2)nc(NCc2cccnc2)n1	inconclusive: 50.1 µM [inhibitor, single point]
O=C1Nc2ccc(Cl)cc2[C@@](C#CC2CC2)(C(F)(F)F)O1	inconclusive: 31.6 µM [inhibitor, partial curve]
O=C(Nc1cccnc1)C12CC3CC(CC(C3)C1)C2	inconclusive: 35.5 µM [inhibitor, single point]
O=C(c1cccc(C(F)(F)F)c1)N1CCN(c2cc(=O)[nH]nc2-c2ccccc2)CC1	inconclusive: 39.8 µM [inhibitor, single point]
COc1ccc(Br)cc1CNc1ccccc1	inconclusive: 15.8 µM [inhibitor, partial curve]
Cc1cc(OCc2cc(C(=O)NCC3(C)COC3)no2)cc(C)c1Cl	inconclusive: 3.55 µM [inhibitor, partial curve]
O=C(O)c1ccc(NC2=C/C(=N/S(=O)(=O)c3ccccc3)c3ccccc3C2=O)cc1	inconclusive: 25.1 µM [inhibitor, single point]
Cc1cccc(Cc2c(C)nc3nc(SCC(=O)NCc4ccco4)nn3c2C)c1	inconclusive: 35.5 µM [inhibitor, partial curve]
Cc1ccccc1Oc1cc(NC(=O)CCCn2nc(C)c([N+](=O)[O-])c2C)cc([N+](=O)[O-])c1	inconclusive: 12.6 µM [inhibitor, single point]

Compound	Potency
FC(F)C(F)(F)C(F)(F)C(F)(F)c1cc(-c2ccccc2)n[nH]1	active: 14.1 µM
CC1CC(C)CN(C(=O)CSCC(=O)Nc2nc(-c3cccs3)cs2)C1 (stereo not drawn)	inconclusive: 31.6 µM [inhibitor, partial curve]
CCc1cccc(NC(=O)CN(C)S(=O)(=O)c2cccc3cccnc23)c1	inconclusive: 35.5 µM [inhibitor, single point]
COc1ccc(-c2ccc(=O)n(Cc3ccc([N+](=O)[O-])cc3)n2)cc1	inconclusive: 35.5 µM [inhibitor, partial curve]
CCc1ccc(Oc2c(C(F)(F)F)oc3c(CN4CCCC(C)C4)c(O)ccc3c2=O)cc1 (stereo not drawn)	inactive
Fc1ccc(CNC(=S)NCc2ccc(F)cc2)cc1	inactive
Cc1cc(O)ccc1NC(=S)NC(=O)c1cncc(Br)c1	inconclusive: 50.1 µM [inhibitor, single point]
CC(C)COc1ccc(C(=O)Nc2ccc([N+](=O)[O-])cc2)cc1	inactive
CN1/C(=C\C(=O)c2cccnc2)C(C)(C)c2ccccc21	inactive
Cc1ccc(NC(=O)CSc2nc(=O)cc(N)n2CCc2ccccc2)cc1	inconclusive: 35.5 µM [inhibitor, partial curve]
O=S(=O)(Nc1nc2ccccc2s1)c1ccc(Cl)s1	inconclusive: 28.2 µM [inhibitor, single point]
O=C(CCc1nc2ccccc2[nH]c1=O)OCC(=O)N1CCc2ccccc21	inconclusive: 31.6 µM [inhibitor, partial curve]
COc1ccc(CC(=O)Nc2cccc(/C(C)=N/NC(=O)C3(C)CC3(Br)Br)c2)cc1 (stereo not drawn)	inconclusive: 15.8 µM [inhibitor, partial curve]
O=c1c2c3c(sc2ncn1/N=C/c1ccccc1)CCCC3	inconclusive: 35.5 µM [inhibitor, single point]
O=C(/C=C/c1ccccc1)C1=C(O)C(=O)N(CCO)C1c1ccccc1[N+](=O)[O-] (stereo not drawn)	inactive
COc1cccc(C(=O)Oc2c(Br)cc(Br)cc2/C=N/NC(=O)c2cc(C)[nH]n2)c1	inconclusive: 6.31 µM [inhibitor, partial curve]
Cc1ccc(NC(=O)C2CCN(S(=O)(=O)c3cc(-c4noc(C)n4)ccc3C)CC2)c(C)c1	inconclusive: 0.794 µM [inhibitor, full curve]
Cc1ccccc1-n1ccnc1SCC(=O)NC1CCCC1	inactive
O=C(CSc1c2c(nc3cc(Cl)ccc13)CCCC2)NCc1ccccc1Cl	inactive
CCCN(CCC)CCCNC(=O)c1cc2c(=O)[nH]c3ccccc3c2n1C	inactive
Cc1c(F)cccc1NS(=O)(=O)c1ccc2c(c1)c(C)cc(=O)n2C	inconclusive: 31.6 µM [inhibitor, partial curve]
